According to PubChem BioAssay AID360 (National Center for Advancing Translational Sciences (NCATS), 2006):
The whole screen tested about 48,000 compounds, of which about 550 (1.1%) were called active. About 4% were inconclusive and are not listed. Rule as the data show it: active = potency below about 15 µM; inconclusive = mostly about 16 µM to 33 µM; inactive = weaker than that. This is one part of the list.

target: Lysosomal acid glucosylceramidase (Homo sapiens) (UniProt P04062); experiment: Glucocerebrosidase; settings: purified enzyme, resorufin glucoside fluorescence (screen aimed at inhibitors), 20 min; series mostly up to 77 µM;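 also: the screen sought inhibitors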
Outline: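 Wild-type enzyme at 0.2 nM final in 50mM citric acid/KH2PO4, 10mM sodium taurocholate, 0.01% tween-20, pH 5.9, with resorufin beta-D-glucopyranoside at 30 uM final. Compounds titrated, 20 min at RT, red fluorescence read; AC50 from titration.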
Potency is read from the fitted curve at half-maximal effect.

UniProt P04062, sequence (P04062 whole entry, looked up): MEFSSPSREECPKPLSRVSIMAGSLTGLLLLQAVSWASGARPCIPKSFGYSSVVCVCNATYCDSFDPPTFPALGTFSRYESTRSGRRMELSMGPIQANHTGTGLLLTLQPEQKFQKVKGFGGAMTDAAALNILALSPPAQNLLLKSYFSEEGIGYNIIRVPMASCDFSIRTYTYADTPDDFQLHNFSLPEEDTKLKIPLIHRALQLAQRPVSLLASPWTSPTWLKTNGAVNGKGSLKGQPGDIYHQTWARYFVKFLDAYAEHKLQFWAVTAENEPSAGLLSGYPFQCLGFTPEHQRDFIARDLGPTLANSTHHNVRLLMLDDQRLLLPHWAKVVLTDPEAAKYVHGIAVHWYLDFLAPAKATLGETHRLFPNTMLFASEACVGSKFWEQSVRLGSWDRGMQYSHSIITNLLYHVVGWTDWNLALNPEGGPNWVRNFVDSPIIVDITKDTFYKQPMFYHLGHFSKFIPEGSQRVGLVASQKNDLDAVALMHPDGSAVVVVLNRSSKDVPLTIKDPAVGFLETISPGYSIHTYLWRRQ

Potency, active:
O=C(Nc1ccc(OC(=O)c2ccncc2)cc1)c1ccncc1 1.86 µM

Potency, inactive:
CC(OC(=O)c1cc2sccc2n1C)C(=O)NCc1ccco1 (stereo unspecified) > 76.9 µM
Cc1ccc2c(Cl)cc(Cl)c(OCc3c(C)noc3C)c2n1 > 76.9 µM
Cc1ccc2[nH]c(=O)c(CN(Cc3ccco3)S(=O)(=O)c3c(C)ccc4nsnc34)cc2c1
COC(=O)c1c(NC(=O)CSc2nc3c(c(=O)n(C)c(=O)n3C)n2C(C)C)sc(C)c1C > 76.9 µM
O=C(Cc1c(C(=O)O)[nH]c2ccccc12)NC1CCN(Cc2ccccc2)CC1 > 76.9 µM
COc1ccc(C(c2nnnn2C2CCCC2)N2CCC(C)CC2)c(OC)c1 (stereo unspecified) > 76.9 µM
Cc1cc(NC(=O)CSc2nnc(-c3ccoc3C)o2)no1 > 76.9 µM
Cc1cc(NS(=O)(=O)c2ccc(C3CCCCC3)cc2)no1 > 76.9 µM
CS(=O)(=O)N1CCN(c2nnc(-c3ccccc3)c3ccccc23)CC1 > 76.9 µM
CC(C)C(OC(=O)c1ccco1)C(=O)NCc1cccs1 (stereo unspecified) > 76.9 µM
Cc1occc1C(=O)NCc1ccccn1 > 76.9 µM
CCOC(=O)c1cnn2c(C(F)F)cc(C3CC3)nc12 > 76.9 µM
COc1ccc(OC)c(C(=O)Cn2nnc3ccccc3c2=O)c1 > 76.9 µM
O=C(O)Cc1coc(-c2ccc(F)cc2)n1 > 76.9 µM
Cc1oc(C(=O)O)cc1COc1ccccc1Cl > 76.9 µM
Cc1[nH]c2ccccc2c1C(=O)CN1CCC(C(N)=O)(N2CCCCC2)CC1 > 76.9 µM
CC(C)(C)NC(=O)CN(C(=O)C1CSC(=O)C1)c1ccc2c(c1)OCCO2 (stereo unspecified) > 76.9 µM
Cc1ccc(C2C(=O)N(C3CCCC3)CC(=O)N2CC2COc3ccccc3O2)cc1 (stereo unspecified) > 76.9 µM
CC(C)CNc1nc(Oc2ccc(=O)n(-c3ccccc3)n2)nc(N2CCOCC2)n1 > 76.9 µM
COc1ccc(CC(NC(C)=O)C(=O)NC2CCN(C(=O)NCc3ccccc3)CC2)cc1OC (stereo unspecified) > 76.9 µM
CCOC(=O)C1CCCN(Cc2ccccc2C)C1 (stereo unspecified) > 76.9 µM
CCOC(=O)C1=C(C)N=C2SCCC(=O)N2C1c1sccc1C (stereo unspecified) > 76.9 µM
COc1ccc(-c2cc(-c3ccc(OC)cc3)[nH]n2)cc1 > 76.9 µM
COc1cc(C2c3c(-c4cc(C)cc(C)c4O)n[nH]c3C(=O)N2CCCO)cc(OC)c1OC (stereo unspecified) > 76.9 µM
CCCn1c(=NC(C)=O)c(C(=O)OCC)cc2c(=O)n3ccccc3nc21 > 76.9 µM
c1ccc(CNC2=NCCC2)nc1 > 76.9 µM
Cn1c(N)c(C(=O)NCc2ccccc2)sc1=S > 76.9 µM
CCCCn1nc(NC(=O)c2cccs2)c2cc3cc(OC)ccc3nc21
CC(C)CC(c1nnnn1Cc1ccco1)N1CCN(C2CCCC2)CC1 (stereo unspecified) > 76.9 µM
O=C(O)c1cc(-c2ccc3c(c2)OCO3)nc2ccccc12 > 76.9 µM
Cc1ccc(C(=O)CSc2nnc(CNc3ccc(C)cc3C)o2)cc1 > 76.9 µM
O=C(CN1CCOCC1)Nc1ccccc1NC(=O)C1CCN(c2ncccn2)CC1 > 76.9 µM
Cc1ccc2cc(CN(CCN3CCOCC3)C(=O)NCc3ccccc3)c(=O)[nH]c2c1C > 76.9 µM
O=c1c2ccccc2nnn1Cc1nnc(-c2ccccc2Br)o1 > 76.9 µM
O=C(Nc1nnc(COc2ccc(Cl)cc2)s1)C1CCCO1 (stereo unspecified) > 76.9 µM
CCCCN(CCCC)C(=O)CSc1nnc(-c2cc(OC)c(OC)c(OC)c2)o1 > 76.9 µM
COc1cccc(CNC(=O)c2nnn(CC(=O)Nc3ccc(C)c(C)c3)c2N)c1 > 76.9 µM
COC(=O)c1cccc(NC(=O)CSc2nc(C)cc(=O)[nH]2)c1 > 76.9 µM
O=C(O)CCCC(=O)N1CC(=O)Nc2ccccc21 > 76.9 µM
CC(=O)c1c(N2CCN(Cc3ccc4c(c3)OCO4)CC2)nc(=S)n(-c2ccccc2)c1C > 76.9 µM
CCOc1ccccc1Oc1coc2cc(OC(=O)c3ccco3)ccc2c1=O > 76.9 µM
CCOCC(=O)Nc1nnc(C2CCCCC2)s1 > 76.9 µM
O=C1OC(N2CCN(C(=O)C3CCCO3)CC2)c2ccccc21 (stereo unspecified) > 76.9 µM
COc1ccc2c(Cl)c(-c3nnc4n3CCCCC4)sc2c1 > 76.9 µM
O=C(CCN1CCC(c2ccccc2)C1)c1cccs1 (stereo unspecified) > 76.9 µM
CCOC(=O)C1C2C=CC3(CN(Cc4ccco4)C(=O)C13)O2 (stereo unspecified) > 76.9 µM
Cc1nc2nc[nH]n2c(=O)c1NC(=O)CC12CC3CC(CC(C3)C1)C2 > 76.9 µM
COC(=O)CSc1ccc2nnc(-c3ccc(F)cc3)n2n1 > 76.9 µM
O=C(CCNS(=O)(=O)c1ccc2c(c1)CCC(=O)N2)NCc1ccc2c(c1)OCO2 > 76.9 µM
CC1(C)OC(=O)C(=CNc2ncccn2)C(=O)O1 > 76.9 µM
CCOc1ccc2nc3sc(C(=O)N4CCN(C)CC4)c(N)c3cc2c1 > 76.9 µM
Cn1cc(CN2CCN(c3ccccc3)CC2)c2ccccc21 > 76.9 µM
COc1ccc(NC(=O)CSc2nnc(C3CC3)n2N)cc1 > 76.9 µM
CCOC(=O)CN(C(=O)CNC(=O)c1ccco1)C(C(=O)NC1CCCC1)c1ccccc1OCC (stereo unspecified) > 76.9 µM
O=C(CN1CCOCC1)Nc1ccc(NC(=O)CN2CCOCC2)c(Cl)c1 > 76.9 µM
CCCC(c1nnnn1C(C)(C)CC)N1CCN(C2CCCC2)CC1 (stereo unspecified) > 76.9 µM
CC(C(=O)NCc1cccnc1)N1C(=O)c2ccccc2C1=O (stereo unspecified) > 76.9 µM
CCOC(=O)C1CCCN(C(=O)c2cn(CC(C)C)c(=O)c3cc(OC)c(OC)cc23)C1 (stereo unspecified) > 76.9 µM
CCOc1cc(C)c(Cl)cc1S(=O)(=O)N(C)C > 76.9 µM
O=C(CCS(=O)(=O)c1cc(Br)cc2c1N(C(=O)C1CC1)CC2)NCC1CCCO1 (stereo unspecified) > 76.9 µM
Cc1nc(C(C)(C)O)n(-c2ccccc2)n1 > 76.9 µM
O=C(c1ccccc1)c1c[nH]c2cc3c(cc2c1=O)OCO3 > 76.9 µM
O=C(c1ccc2c(c1)OCO2)N1CCN(c2ccccc2)CC1 > 76.9 µM
O=C(O)c1cc2cc(F)ccc2[nH]1 > 76.9 µM
COc1ccccc1NC(=O)CCC(=O)O > 76.9 µM
Cc1ccccc1-c1nnc(SCc2ccccc2F)o1 > 76.9 µM
COC(=O)C1C2C=CC3(CN(c4cccc(C)c4)C(=O)C13)O2 (stereo unspecified) > 76.9 µM
COc1ccc(S(=O)(=O)n2nc(OC(=O)c3ccc(C)cc3)cc2N)cc1 > 76.9 µM
Cc1cc(N2CCN(S(=O)(=O)c3ccc4c(c3)OCCO4)CC2)n2ncnc2n1 > 76.9 µM
COC(=O)c1cccc(Oc2nc3c(c(=O)n(C)c(=O)n3C)n2Cc2ccc(C)cc2)c1 > 76.9 µM
CCCCCn1c(N2CCN(Cc3ccccc3)CC2)nc2c1c(=O)[nH]c(=O)n2C > 76.9 µM
COc1ccc(C)cc1S(=O)(=O)N(CC(=O)O)c1ccccc1 > 76.9 µM
CC1CCCC(C)N1C(=O)c1cc(-c2ccc(Cl)c(Cl)c2)on1 (stereo unspecified) > 76.9 µM
CCc1nnc(NC(=O)C(C)N2C(=O)C3C4C=CC(C4)C3C2=O)s1 (stereo unspecified) > 76.9 µM
Cn1c(SCC(=O)Nc2ccc3cn[nH]c3c2)nnc1-c1cnccn1 > 76.9 µM
O=C(Cn1c(NCCCO)nc2ccccc21)c1cccc(Br)c1 > 76.9 µM
CC(=O)N1CCc2cc(Br)cc(S(=O)(=O)NCC3CCCO3)c21 (stereo unspecified) > 76.9 µM
O=C(CN1CCOCC1)Nc1ccc(Oc2ccccc2)cc1
CS(=O)(=O)N(CC(=O)Nc1cccnc1)c1ccc2c(c1)OCO2 > 76.9 µM
COc1ccc(C2C(C(=O)NCc3cccnc3)c3ccccc3C(=O)N2C)cc1OC (stereo unspecified) > 76.9 µM
COc1ccc(C2=Nn3c(nnc3-c3cccnc3)SC2)cc1
CN(C1CCCCC1)S(=O)(=O)c1ccc(NC(=O)C2CCCCC2C(=O)O)cc1 (stereo unspecified) > 76.9 µM
COc1ccc(C2=CC(c3ccc(Cl)cc3)n3cnnc3N2)cc1OC (stereo unspecified) > 76.9 µM
CCOC(=O)c1nnc2ccnn2c1N > 76.9 µM
O=C(Nc1ccccc1N1CCN(c2ccc(F)cc2)CC1)C1CCCCC1 > 76.9 µM
O=C(c1ccco1)N1CCN(C(c2ccccc2Cl)c2nnnn2Cc2cccs2)CC1 (stereo unspecified) > 76.9 µM
COC(=O)N/C(C)=C1/NC(=O)c2ccccc2C(c2ccccc2)N1 (stereo unspecified) > 76.9 µM
O=C(Cn1cnc2c(cnn2-c2ccc(F)cc2)c1=O)N1CCCc2ccccc21 > 76.9 µM
CCn1c(CC(=O)Nc2ccc(C)cc2)nnc1SCC(=O)N1CCN(c2ccccc2)CC1 > 76.9 µM
Cc1ccc(-c2csc3n[nH]c(=S)n23)cc1 > 76.9 µM
